# From PubChem BioAssay (Tox21)
# Several values for one entry are separate records, joined by “and”; a condition that tells them apart may be missing. Equal values may be shown once. Inconclusive means that the source gave no clear call. Such entries were picked first, then a sample of the others. For part of these data: A potency beside an inconclusive call is a rough fit, not a confirmed value. Activity calls are given as the source filed them. Unless noted, calls follow the shape of the full dose curve.
# Experiments:
# [1] = target: Peroxisome proliferator-activated receptor gamma (Homo sapiens) (UniProt P37231); experiment: qHTS assay to identify small molecule antagonists of the peroxisome proliferator-activated receptor gamma (PPARg) signaling pathway (AID 743191); settings: HEK293H PPARg-UAS-bla, beta-lactamase ratio, antagonist, 17 h; ratio activity, negative = inhibition: at 62.6 µM (top of the series) unless noted; also: nearly all actives have a fitted effect of over 30% in size; as to ratio activity, negative = inhibition: % is scaled to controls: 0 for no effect and ±100 for the full control effect
# Method in brief: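 GeneBLAzer PPARg UAS-bla HEK293H cells carrying a UAS-driven beta-lactamase reporter were plated at 3000 cells/well, preincubated 5 h at 37C, then given compound for 17 h at 37C; LiveBLAzer B/G FRET substrate was read after 1 h at room temperature.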
# [2] = qHTS assay for small molecule agonists of the antioxidant response element (ARE) signaling pathway (AID 743202; active = well fitted activation curve with a large enough effect in the signal ratio in the repeat runs, not every such curve was filed as active; inconclusive = weak or mixed curves, or effect the other way; inactive = no such curve, though single readings can be large or run the other way; the % refers to the signal ratio; as to activation: % is scaled to controls: 0 for no effect and ±100 for the full control effect); settings: HepG2 ARE-bla reporter, beta-lactamase FRET, 16 h; activation: at 73.3 µM (top of the series) unless noted
# Method in brief: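 Steps: seed ARE-bla HepG2 cells (2,000/well); incubate 5 h at 37 C; add compounds by pin tool; incubate 16 h at 37 C; add FRET substrate; read fluorescence after 2 h at RT.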
# [3] = qHTS assay to identify small molecule agonists of the farnesoid-X-receptor (FXR) signaling pathway - cell viability counter screen (AID 743218; active = well fitted curve in the direction sought with a large enough effect in the repeat runs; inconclusive = weak or mixed curves; inactive = no such curve, though single readings can be large; an effect the other way counts as inactive or inconclusive; also: nearly all actives have a fitted effect of over 45% in size; as to viability change, negative = cytotoxic: % is scaled to controls: 0 for no effect and ±100 for the full control effect); settings: FXR-bla HEK293T viability, CellTiter-Glo luminescence, 16 h; viability change, negative = cytotoxic: at 62.6 µM (top of the series) unless noted
# Method in brief: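 Luminescence from CellTiter-Glo, read after 30 min at RT, reports viability of GeneBLAzer FXR-UAS-bla HEK 293T cells treated 16 h with compounds in the wells used for the beta-lactamase reporter.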
# [4] = qHTS assay to identify small molecule agonists of the NFkB signaling pathway - cell viability counter screen (AID 1159515); also: nearly all actives have a fitted effect of over 55% in size
# Method in brief: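 ME-180 NFkB-bla cells, 2,000/well; overnight attach; compound 5 hr, 37 C/5% CO2; LiveBLAzer substrate 1.5 hr RT; then CellTiter-Glo in same wells, 30 min RT, luminescence read.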
# [5] = qHTS assay to identify small molecule agonists of the endoplasmic reticulum stress response signaling pathway (AID 1159516; active = well fitted activation curve with a large enough effect in the signal ratio in the repeat runs, not every such curve was filed as active; inconclusive = weak or mixed curves, or effect the other way; the % refers to the signal ratio; as to activation: % is scaled to controls: 0 for no effect and ±100 for the full control effect); settings: ESRE-bla HeLa, ER stress beta-lactamase reporter, 5 h; activation: at 61 µM (top of the series) unless noted
# Method in brief: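 HeLa ESRE-bla reporter line; cpd 5 h, 37 C/5% CO2; LiveBLAzer B/G FRET substrate 2 h RT; ex 405, em 460/530 nm.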
# [6] = qHTS assay for small molecule activators of the heat shock response signaling pathway - cell viability counter screen (AID 743209; active = well fitted curve in the direction sought with a large enough effect in the repeat runs; inconclusive = weak or mixed curves; inactive = no such curve, though single readings can be large; an effect the other way counts as inactive or inconclusive; also: nearly all actives have a fitted effect of over 50% in size); settings: HSE-bla HeLa viability, CellTiter-Glo luminescence, 5 h; activity change, negative = cytotoxicity: at 62.6 µM (top of the series) unless noted
# Method in brief: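 HSE-bla HeLa; 1500 cells/well; overnight 37 C, 5% CO2; compound 5 h 37 C; LiveBLAzer B/G substrate 2.5 h RT; CellTiter-Glo 30 min RT; luminescence.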
# [7] = qHTS assay for small molecule activators of the heat shock response signaling pathway (AID 743210; active = well fitted activation curve with a large enough effect in the signal ratio in the repeat runs, with a control signal flat, not every such curve was filed as active; inconclusive = weak or mixed curves; the % refers to the signal ratio); settings: HeLa HSE-bla reporter, beta-lactamase ratio, 5 h; activation: at 62.6 µM (top of the series)
# Method in brief: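 Activation of heat shock element-controlled beta-lactamase expression is measured in HeLa cells by LiveBLAzer FRET fluorescence, with compound exposure lasting 5 h at 37 C and substrate loading 2.5 h at room temperature.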
# [8] = qHTS assay to identify small molecule agonists of the peroxisome proliferator-activated receptor delta (PPARd) signaling pathway - cell viability counter screen (AID 743211; active = well fitted curve in the direction sought with a large enough effect in the repeat runs; inconclusive = weak or mixed curves; inactive = no such curve, though single readings can be large; an effect the other way counts as inactive or inconclusive; also: nearly all actives have a fitted effect of over 55% in size); settings: PPARd-bla HEK293H viability, CellTiter-Glo luminescence, 17 h; activity change, negative = cytotoxicity: at 62.6 µM (top of the series) unless noted
# Method in brief: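 Multiplexed format: after the 2 h room-temperature LiveBLAzer B/G FRET step, CellTiter-Glo was added to the same wells. Luminescence after 30 min gave cell viability; compound exposure was 17 h at 37C.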
# [9] = target: Peroxisome proliferator-activated receptor delta (Homo sapiens) (UniProt Q03181); experiment: qHTS assay to identify small molecule agonists of the peroxisome proliferator-activated receptor delta (PPARd) signaling pathway (AID 743212); settings: HEK293H PPARd-UAS-bla, beta-lactamase FRET ratio, 17 h; activation: at 62.6 µM (top of the series) unless noted
# Method in brief: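 Cells expressing a UAS-driven beta-lactamase reporter (PPARd-bla HEK293H) were given test compounds after a 5 h settle and kept at 37 C. Reporter activity was then measured as FRET fluorescence using LiveBLAzer B/G substrate.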
# [10] = target: Peroxisome proliferator-activated receptor delta (Homo sapiens) (UniProt Q03181); experiment: qHTS assay to identify small molecule antagonists of the peroxisome proliferator-activated receptor delta (PPARd) signaling pathway (AID 743215; active = well fitted inhibition curve with a large enough effect in the signal ratio in the repeat runs, not every such curve was filed as active; inconclusive = weak or mixed curves, or effect the other way; inactive = no such curve, though single readings can be large or run the other way; the % refers to the signal ratio;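 also: cells stimulated with agonist L165041 at 300 nM final during compound exposure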); settings: HEK293H PPARd-UAS-bla, beta-lactamase FRET ratio, antagonist, 17 h; ratio activity, negative = inhibition: at 62 µM (top of the series) unless noted
# Method in brief: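 HEK293H GeneBLAzer PPARd UAS-bla reporter cells; cpd + L165041 300 nM final, 17 h 37 C; LiveBLAzer B/G FRET substrate 2 h RT; fluorescence intensity read-out. Antagonist mode.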
# [11] = target: Bile acid receptor (Homo sapiens) (UniProt Q96RI1); experiment: qHTS assay to identify small molecule antagonists of the farnesoid-X-receptor (FXR) signaling pathway (AID 743217; active = well fitted inhibition curve with a large enough effect in the signal ratio in the repeat runs, not every such curve was filed as active; inconclusive = weak or mixed curves, or effect the other way; inactive = no such curve, though single readings can be large or run the other way; the % refers to the signal ratio); settings: HEK293T FXR-UAS-bla, beta-lactamase ratio, CDCA-stimulated, 16 h; activity change, negative = inhibition: at 62.6 µM (top of the series) unless noted
# Method in brief: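 Read-out: beta-lactamase FRET fluorescence (LiveBLAzer B/G substrate, 2 h, room temperature) in GeneBLAzer FXR-UAS-bla HEK 293T cells. Compounds were co-dosed with 50 uM chenodeoxycholic acid (final) and incubated 16 h at 37 °C.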
# [12] = target: Vitamin D3 receptor (Homo sapiens) (UniProt P11473); experiment: qHTS assay to identify small molecule antagonists of the vitamin D receptor (VDR) signaling pathway (AID 743223; active = well fitted inhibition curve with a large enough effect in the signal ratio in the repeat runs, not every such curve was filed as active; inconclusive = weak or mixed curves, or effect the other way; inactive = no such curve, though single readings can be large or run the other way; the % refers to the signal ratio); settings: VDR-UAS-bla HEK293T, beta-lactamase FRET ratio, 16 h; activity change, negative = inhibition: at 61 µM (top of the series) unless noted
# Method in brief: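 After VDR-bla cells are plated and left 4 h at 37C, DMSO-dissolved compounds and 3 nM (final) calcitriol agonist are added. Incubation continues 16 h at 37C; FRET beta-lactamase substrate then develops 2 h at room temperature.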
# [13] = qHTS assay to identify small molecule antagonists of the peroxisome proliferator-activated receptor delta (PPARd) signaling pathway - cell viability counter screen (AID 743213; active = well fitted curve in the direction sought with a large enough effect in the repeat runs; inconclusive = weak or mixed curves; inactive = no such curve, though single readings can be large; an effect the other way counts as inactive or inconclusive; also: nearly all actives have a fitted effect of over 50% in size); settings: PPARd-bla HEK293H viability, CellTiter-Glo luminescence, 17 h; viability change, negative = cytotoxic: at 62 µM (top of the series) unless noted
# Method in brief: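 CellTiter-Glo was added to PPARd-bla HEK293H wells following 17 h compound treatment in the presence of 300 nM L165041. Luminescence was recorded after 30 min at room temperature.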
# [14] = qHTS assay to identify small molecule antagonists of the farnesoid-X-receptor (FXR) signaling pathway - cell viability counter screen (AID 743221; active = well fitted cell-killing curve with a large enough effect in the repeat runs, not every such curve was filed as active; inconclusive = weak or mixed curves, or effect the other way; inactive = no such curve, though single readings can be large or run the other way; also: nearly all actives have a fitted effect of over 50% in size); settings: FXR-bla HEK293T viability, CellTiter-Glo luminescence, 16 h; activity change, negative = cytotoxicity: at 62.6 µM (top of the series) unless noted
# Method in brief: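 CellTiter-Glo, 30 min RT, luminescence; same wells as the LiveBLAzer FRET read. Cells: FXR-UAS-bla HEK 293T. Treatment: compound with chenodeoxycholic acid 50 uM final, 16 h at 37 C.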
# [15] = target: Vitamin D3 receptor (Homo sapiens) (UniProt P11473); experiment: qHTS assay to identify small molecule agonists of the vitamin D receptor (VDR) signaling pathway (AID 743222); settings: HEK293T VDR-UAS-bla, beta-lactamase FRET ratio, 16 h; activation: at 63.5 µM (top of the series) unless noted
# Method in brief: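 Beta-lactamase reporter readout (LiveBLAzer B/G FRET, 2 h RT) in VDR-bla cells after 16 h compound treatment at 37C, 5% CO2; cells pre-incubated 4 h before pin transfer of DMSO solutions.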
# [16] = qHTS assay to identify small molecule antagonists of the vitamin D receptor (VDR) signaling pathway - cell viability counter screen (AID 743225; active = well fitted curve in the direction sought with a large enough effect in the repeat runs; inconclusive = weak or mixed curves; inactive = no such curve, though single readings can be large; an effect the other way counts as inactive or inconclusive; also: nearly all actives have a fitted effect of over 50% in size); settings: VDR-bla HEK293T viability, CellTiter-Glo luminescence, 16 h; viability change, negative = cytotoxic: at 61 µM (top of the series) unless noted
# Method in brief: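 Cytotoxicity toward the VDR-bla HEK 293T line was scored by ATP-based CellTiter-Glo luminescence, read in the wells already used for the beta-lactamase readout after 16 h compound treatment under 3 nM 1-alpha,25-dihydroxyvitamin D3 stimulation.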
# [17] = qHTS assay to identify small molecule agonists of the vitamin D receptor (VDR) signaling pathway - cell viability counter screen (AID 743224; active = well fitted curve in the direction sought with a large enough effect in the repeat runs; inconclusive = weak or mixed curves; inactive = no such curve, though single readings can be large; an effect the other way counts as inactive or inconclusive; also: nearly all actives have a fitted effect of over 50% in size)
# Method in brief: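 Cytotoxicity counter screen: VDR-bla cells, 16 h compound exposure at 37C, 5% CO2; CellTiter-Glo luminescence, 30 min RT, same wells as bla read.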
# [18] = qHTS assay to identify small molecule antagonists of the peroxisome proliferator-activated receptor gamma (PPARg) signaling pathway - cell viability counter screen (AID 743194; active = well fitted curve in the direction sought with a large enough effect in the repeat runs; inconclusive = weak or mixed curves; inactive = no such curve, though single readings can be large; an effect the other way counts as inactive or inconclusive; also: nearly all actives have a fitted effect of over 55% in size); settings: PPARg-bla HEK293H viability, CellTiter-Glo luminescence, 17 h; Potency: co-treated with 50 nM rosiglitazone unless noted; activity change, negative = cytotoxicity: at 62.6 µM (top of the series), co-treated with 50 nM rosiglitazone unless noted
# Method in brief: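 PPARg-UAS-bla HEK293H cells were plated, rested 5 h at 37 C, then treated with compounds plus rosiglitazone (50 nM final) for 17 h at 37 C; viability was then read by CellTiter-Glo luminescence after 30 min at room temperature.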
# Potency is read from the fitted curve at half-maximal effect; tags tell the direction and shape of the fitted curve or compound fluorescence and quenching.
# UniProt P11473, sequence (P11473 whole entry, looked up): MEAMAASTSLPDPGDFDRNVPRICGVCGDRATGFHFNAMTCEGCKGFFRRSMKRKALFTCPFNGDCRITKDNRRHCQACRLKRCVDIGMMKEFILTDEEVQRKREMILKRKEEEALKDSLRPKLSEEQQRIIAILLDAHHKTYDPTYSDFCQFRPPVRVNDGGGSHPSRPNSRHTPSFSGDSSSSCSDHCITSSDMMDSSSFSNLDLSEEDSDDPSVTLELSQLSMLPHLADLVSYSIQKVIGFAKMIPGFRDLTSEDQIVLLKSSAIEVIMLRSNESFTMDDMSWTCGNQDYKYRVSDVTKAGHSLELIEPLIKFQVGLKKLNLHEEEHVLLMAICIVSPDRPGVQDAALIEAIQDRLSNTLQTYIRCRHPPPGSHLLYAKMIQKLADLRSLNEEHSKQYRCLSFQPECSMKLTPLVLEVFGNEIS
# UniProt Q03181, sequence (Q03181 whole entry, looked up): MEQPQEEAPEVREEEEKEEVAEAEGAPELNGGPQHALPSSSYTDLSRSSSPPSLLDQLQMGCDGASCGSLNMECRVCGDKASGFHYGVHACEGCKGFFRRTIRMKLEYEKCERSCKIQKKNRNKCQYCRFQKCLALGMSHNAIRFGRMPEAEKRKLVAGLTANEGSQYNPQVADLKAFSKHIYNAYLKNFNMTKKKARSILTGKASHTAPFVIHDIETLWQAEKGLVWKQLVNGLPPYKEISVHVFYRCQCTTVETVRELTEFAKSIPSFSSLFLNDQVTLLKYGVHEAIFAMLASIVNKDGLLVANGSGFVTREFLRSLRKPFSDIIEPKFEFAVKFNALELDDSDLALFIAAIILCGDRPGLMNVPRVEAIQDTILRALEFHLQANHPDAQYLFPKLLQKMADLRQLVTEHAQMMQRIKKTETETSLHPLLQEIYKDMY
# UniProt P37231, sequence (P37231 whole entry, looked up): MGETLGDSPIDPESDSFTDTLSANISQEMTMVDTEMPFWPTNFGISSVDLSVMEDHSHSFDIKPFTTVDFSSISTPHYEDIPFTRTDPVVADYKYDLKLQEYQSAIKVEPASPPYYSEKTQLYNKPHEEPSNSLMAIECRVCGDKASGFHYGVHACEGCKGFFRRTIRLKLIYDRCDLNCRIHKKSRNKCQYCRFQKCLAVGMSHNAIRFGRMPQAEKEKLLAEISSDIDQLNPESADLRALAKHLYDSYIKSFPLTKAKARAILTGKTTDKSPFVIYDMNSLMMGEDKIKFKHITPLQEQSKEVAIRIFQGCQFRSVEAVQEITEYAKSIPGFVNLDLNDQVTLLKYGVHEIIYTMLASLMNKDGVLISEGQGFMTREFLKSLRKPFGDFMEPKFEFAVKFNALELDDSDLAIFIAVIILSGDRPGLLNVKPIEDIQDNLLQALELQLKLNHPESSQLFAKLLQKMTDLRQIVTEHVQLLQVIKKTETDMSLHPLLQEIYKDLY
# UniProt Q96RI1, sequence (Q96RI1 whole entry, looked up): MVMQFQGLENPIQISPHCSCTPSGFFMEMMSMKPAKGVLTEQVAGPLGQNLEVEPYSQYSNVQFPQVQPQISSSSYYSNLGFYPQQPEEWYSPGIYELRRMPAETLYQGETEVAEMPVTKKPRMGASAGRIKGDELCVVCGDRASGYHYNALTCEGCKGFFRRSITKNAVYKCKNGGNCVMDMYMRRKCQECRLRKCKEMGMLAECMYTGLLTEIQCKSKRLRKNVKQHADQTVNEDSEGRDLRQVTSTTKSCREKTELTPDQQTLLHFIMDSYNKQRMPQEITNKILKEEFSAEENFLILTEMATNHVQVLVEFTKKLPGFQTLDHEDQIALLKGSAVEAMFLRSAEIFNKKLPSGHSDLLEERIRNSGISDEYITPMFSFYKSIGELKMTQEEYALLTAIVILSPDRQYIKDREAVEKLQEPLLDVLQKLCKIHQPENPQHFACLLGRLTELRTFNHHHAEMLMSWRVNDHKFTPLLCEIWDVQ
smiles,measurement,setting,value
O=C(Cl)c1ccccc1,Potency,[1],inactive
same,activation,[2],inconclusive: -2.4% [at 94.8 µM]
same,"viability change, negative = cytotoxic",[3],inconclusive: 36.7% [at 81.1 µM]
same,Potency,[4],inactive
same,Potency,[5],inactive
CC(=O)/C=C/c1ccc2c(c1)OCO2,Potency,[1],active: 12.4 µM
same,Potency,[2],inconclusive: 68.9 µM
same,Potency,[6],"inconclusive: 49.2 µM [cytotoxic, partial curve]"
same,Potency,[7],"inconclusive: 34.8 µM [falling, partial curve, poor fit]"
same,Potency,[8],"inconclusive: 49.2 µM [cytotoxic, single point]"
same,Potency,[9],"inconclusive: 55.2 µM [rising, single point]"
same,Potency,[10],active: 43.9 µM
same,Potency,[11],inconclusive: 55.2 µM
same,Potency,[12],"inconclusive: 11 µM [rising, partial curve, poor fit]"
same,Potency,[4],"inconclusive: 2.47 µM [cytotoxic, single point]"
same,activation,[5],inconclusive: -1.05% [at 78.8 µM]
CCN(CC)C(=S)[S-].CCN(CC)C(=S)[S-].[Zn+2],Potency,[1],"inconclusive: 1.54 µM [rising, full curve, poor fit]"
same,Potency,[2],"inconclusive: 68 µM [falling, single point]"
same,Potency,[9],"inconclusive: 0.433 µM [rising, full curve]"
same,Potency,[13],active: 0.433 µM
same,Potency,[10],"inconclusive: 0.486 µM [rising, partial curve]"
same,Potency,[3],active: 3.44 µM
same,Potency,[14],active: 6.86 µM
same,Potency,[15],"inconclusive: 4.33 µM [rising, full curve, poor fit]"
same,Potency,[12],inconclusive: 2.73 µM [full curve]
same,Potency,[16],active: 3.06 µM
same,Potency,[4],active: 12.2 µM
same,Potency,[5],"inconclusive: 0.0386 µM [fluorescent, full curve, poor fit]"
ClCC(Br)CBr (stereo unspecified),Potency,[14],inactive
same,Potency,[4],inactive
same,Potency,[5],inactive
O=C(O)c1nn(Cc2ccc(Cl)cc2Cl)c2ccccc12,Potency,[13],"inconclusive: 0.434 µM [cytotoxic, full curve, poor fit]"
same,Potency,[3],"inconclusive: 24.4 µM [rising, single point]"
same,Potency,[15],"inconclusive: 11.9 µM [rising, full curve]"
same,"activity change, negative = inhibition",[12],inconclusive: 0.858% and inconclusive: 21.3%
same,Potency,[17],inactive
same,Potency,[16],"inconclusive: 0.194 µM [cytotoxic, single point]"
same,Potency,[4],inactive
same,Potency,[5],"inconclusive: 38.6 µM [rising, partial curve]"
C=CCN(CC=C)C(=O)C(Cl)Cl,Potency,[18],"inconclusive: 2.75 µM [cytotoxic, full curve, poor fit]"
same,Potency,[3],"inconclusive: 0.229 µM [rising, full curve, poor fit]"
same,Potency,[12],"inactive and inconclusive: 21.9 µM [activator, single point]"
same,Potency,[4],inactive
same,Potency,[5],"inconclusive: 36.3 µM [rising, partial curve, poor fit]"
CC(Cl)Cl,"ratio activity, negative = inhibition",[1],inconclusive: 5.91%
same,activation,[2],inconclusive: 33.3%
same,Potency,[17],inactive
same,Potency,[4],"inconclusive: 58.9 µM [rising, partial curve, poor fit]"
same,Potency,[5],inactive
CC(=O)OC1(c2ccccc2)CCN(CCc2ccccc2)CC1,"ratio activity, negative = inhibition",[1],inconclusive: 5.69% [at 81.1 µM]
same,activation,[2],inconclusive: 0.117% [at 94.8 µM]
same,Potency,[14],inactive
same,Potency,[4],"inconclusive: 22.4 µM [cytotoxic, partial curve, poor fit]"
same,Potency,[5],"inconclusive: 0.0141 µM [falling, full curve]"
CC[C@H](C)[C@H]1O[C@]2(C=C[C@@H]1C)C[C@@H]1C[C@@H](C/C=C(\C)[C@@H](O[C@H]3C[C@H](OC)[C@@H](O[C@H]4C[C@H](OC)[C@@H](NC)[C@H](C)O4)[C@H](C)O3)[C@@H](C)/C=C/C=C3\CO[C@@H]4[C@H](O)C(C)=C[C@@H](C(=O)O1)[C@]34O)O2,Potency,[1],"inconclusive: 13.8 µM [cytotoxic, full curve]"
same,activation,[2],inconclusive: -0.515%
same,Potency,[6],active: 13.8 µM
same,Potency,[8],active: 3.09 µM
same,Potency,[13],active: 3.89 µM
same,Potency,[3],active: 5.49 µM
same,Potency,[15],inconclusive: 12.3 µM
same,Potency,[12],inconclusive: 6.16 µM
same,Potency,[17],active: 3.09 µM
same,Potency,[16],active: 4.36 µM
same,Potency,[4],active: 34.7 µM
same,Potency,[5],inconclusive: 54.9 µM [cytotoxic]
